The results in this text go back to PubChem BioAssay AID1508642 (National Center for Advancing Translational Sciences (NCATS), 2021).

SMILES strings stand for the structures. Out of some 43,000 compounds screened, about 200 (0.47%) were called active. Another 12% or so got no clear call; they are omitted. Calls come from the whole dose curve; as a rule, active = well fitted cell-killing curve with a large enough effect; inconclusive = small, poorly fitted or top-dose-only effect, or effect the other way; inactive = flat fitted curve, though single readings scatter. This is one part of the list.
% is set by controls: 0 for no effect and ±100 for the full control effect.

This test is described as follows: Cell viability qHTS assay in S16 Pmp22-F2sN cells. Note: nearly all actives have a fitted effect of over 65% in size. Conditions: S16 Pmp22-F2sN Schwann cells (luciferase reporters placed in the Pmp22 gene) viability, CellTiter-Glo, 24 h; series mostly up to 57.5 µM; activity change, negative = cytotoxicity: at the top concentration. The method, boiled down:
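Rat S16 Schwann reporter line, 24 h treatment with library compounds delivered at 23 nL per well. Cell viability by CellTiter-Glo luminescence.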
In general terms: In qHTS, concentration-response curves come from the screen itself.
`CC1=C(C(=O)OC2CCCCCC2)C(c2ccc(Cl)cc2Cl)CC(=O)N1` (stereo not drawn): the “activity change, negative = cytotoxicity” value is inactive: 26.4%.

In the case of `COc1ccc(CNC(=O)CC2Oc3ccc(C)cc3NC2=O)cc1` (stereo not drawn), the “activity change, negative = cytotoxicity” value is inactive: 9.34%.

As for `COc1cccc(CNC(=O)c2cc(=O)[nH]c3ccc(S(=O)(=O)N4CCCC4)cc23)c1`, the “activity change, negative = cytotoxicity” value was inactive: -2%. The same measure for `COc1ccc(CCNc2nc(SCc3cccc(Cl)c3)nc3ccccc23)cc1OC`: inactive: 23.6%; for `CCOc1ccc(CCNC(=O)c2nn(C)c3c2CSc2ccc(C)cc2-3)cc1OCC`: inactive: -24%; for `Cc1cccc(Cn2c(CN3CCCC(C)C3)nc3c2c(=O)n(C)c(=O)n3C)c1` (stereo not drawn): inactive: 1.68%.

For `Cc1ccc(S(=O)(=O)N2CCc3cc(C(=O)Nc4c(C)cccc4C(C)C)ccc32)cc1`, the “activity change, negative = cytotoxicity” value is inactive: -0.303%. The same measure for `COC(=O)c1cc2oc3ccccc3c2n1CC(=O)Nc1ccc(F)c(Cl)c1`: inactive: 6.76%; for `Cc1ccccc1Cn1c(C)c(CNCCCc2ccccc2)c(C(=O)O)c1C`: inactive: 4.52%; for `COc1ccc(C2C=C(c3ccc(Cl)cc3)Nc3nc(NC(=O)CCC(=O)O)nn32)cc1` (stereo not drawn): inactive: 2.69%.

As to `Cc1ccccc1Nc1c(-c2c[nH]c3ccccc23)nc2cccc(C)n12`, the “activity change, negative = cytotoxicity” value is inactive: -2.36%. The result for `CCCOc1cccc(C(=O)N2CCCCC2CCN2CCCCC2)c1` (stereo not drawn) reads inactive: 5.4%; that for `CCC(C)NC(=O)Cn1c(=O)c2cccn2c2ccc(F)cc21` (stereo not drawn), inactive: 2.17%; that for `O=C(Nc1ccc(F)cc1Cl)c1cnc(N2CCOCC2)c2ccccc12`, inactive: 1.38%. As for `Cc1ccc(NC(=O)CCc2nc3cccnc3n2-c2ccccc2)cc1Cl`, the “activity change, negative = cytotoxicity” value is inactive: -1.55%. The result for `COc1ccc(-c2csc3nc(-c4ccc(C)cc4)oc(=O)c23)cc1OC` reads inactive: 7.09%; that for `Cc1ccc(N(Cc2cccs2)C(=O)c2ccccc2[N+](=O)[O-])cc1`, inactive: -17.4%; that for `CCn1cc2nc(SCC(=O)Nc3ccc(OC)cc3OC)n(Cc3ccc(Cl)cc3)c(=O)c2n1`, inactive: -2.38%. The same measure for `CCCCN(C)c1nnc(NC(=O)Nc2ccc(Br)c(C)c2)s1`: inactive: 7.82%.

As to `CCc1ccc(CN(Cc2ccco2)C(=O)c2cc(-c3ccc(C)c(F)c3)on2)cc1`, the “activity change, negative = cytotoxicity” value is inactive: 3.52%. In the case of `CCOc1ccc(NC(=O)Cn2cc(C(=O)c3ccc(C)cc3)c(=O)c3cc4c(cc32)OCO4)cc1`, the “activity change, negative = cytotoxicity” value was inactive: 6.09%. The same measure for `CCOCCc1nn2c(=O)cc(COC(=O)c3ccccc3NC(=O)c3ccc(C)cc3)nc2s1`: inactive: 7.06%; for `Fc1ccccc1N1CCN(c2ncnc3c2nc2n3CCCC2)CC1`: inactive: -10%. With `COc1ccc(CCNC(=O)CCCCn2c(=O)c3ccccc3n(Cc3ccccc3)c2=O)cc1OC`, the “activity change, negative = cytotoxicity” value is inactive: 10.7%. For the compound `CCOC(=O)c1ccc(NC(=O)CSc2ncc(S(=O)(=O)c3ccc(C)c(Cl)c3)c(=O)[nH]2)cc1`, the “activity change, negative = cytotoxicity” value is inactive: 12.6%. The result for `O=C(CNS(=O)(=O)c1cccs1)N1CCN(c2ccccc2F)CC1` reads inactive: 9.92%. The same measure for `Cc1ccc(F)cc1S(=O)(=O)N1CCC(c2nc3ccccc3s2)CC1`: inactive: 8.33%; for `CCCn1c(=O)c2sccc2n2c(CCCC(=O)NC3CCCCC3)nnc12`: inactive: 25.4%. For `CCn1c2c(c(=O)n3ncc(C(=O)Nc4ccc(Cl)cc4C)c13)CN(Cc1ccc(OC)cc1)CC2`, the “activity change, negative = cytotoxicity” value is inactive: 0.416%. The result for `Brc1cccc(-c2nnn3c2nc(N2CCCCC2)c2ccccc23)c1` reads inactive: 11.2%.

Take `O=S(=O)(NCCc1csc2nc(-c3ccccc3)nn12)c1ccc(Oc2ccccc2)cc1`: the “activity change, negative = cytotoxicity” value was inactive: -19.2%. On to `CCN(CC)c1ccc(NC(=O)CCc2c(C)nc3ncnn3c2C)c(C)c1`, for which the “activity change, negative = cytotoxicity” value was inactive: 8.5%. For the compound `COc1ccc(Cl)cc1NC(=O)Cn1nnc2sc(-c3ccccc3)cc2c1=O`, the “activity change, negative = cytotoxicity” value was inactive: 16.8%. The same measure for `Cc1ccc(Cl)cc1N1CCN(C(=O)c2noc3c2CCCC3)CC1`: inactive: 3.69%.

For the compound `Cc1ccc(-n2nnnc2CNC(=O)C2CC(=O)N(c3ccccc3)C2)cc1C` (stereo not drawn), the “activity change, negative = cytotoxicity” value was inactive: 10.2%. The result for `O=C1CN(C(=O)Cc2ccccc2)C(c2ccc(F)cc2)c2cc(Br)ccc2N1` (stereo not drawn) reads inactive: -2.73%; that for `CCOc1ccc(NC(=O)[C@@H](c2ccccc2)N2Cc3ccccc3C2=O)cc1`, inactive: -0.863%; that for `CC(C)c1ccc(N2C(=O)N(Cc3cccc([N+](=O)[O-])c3)c3ccccc3S2(=O)=O)cc1`, inactive: 4.75%. For the compound `Cc1noc(-c2ccc(-c3noc(-c4ccc([N+](=O)[O-])c(C)c4)n3)cc2)n1`, the “activity change, negative = cytotoxicity” value is inactive: -15.7%. The result for `COc1ccc(NS(=O)(=O)c2ccc3c(c2)[C@H]2C=CC[C@H]2[C@@H](c2ccc(C(=O)O)cc2)N3)cc1` reads inactive: 3.79%. The result for `CCCc1nn2c(=O)cc(COC(=O)c3ccc(NC(=O)COc4ccccc4F)cc3)nc2s1` reads inactive: -7.35%; that for `CCOc1ccc(CCNCc2c(C(=O)O)c(C)n(Cc3ccccc3F)c2C)cc1`, inactive: 12.6%. The result for `Cc1ccc(S(=O)(=O)N2CCc3cc(C(=O)Nc4ccc(Cl)cc4C)ccc32)cc1` reads inactive: 4.6%; that for `Cc1ccc(-c2cc(NC(=O)c3cccc(C)c3)on2)cc1`, inactive: 4.36%; that for `CCc1nonc1NC(=O)c1oc2cc(C)c(C)cc2c1C`, inactive: 2.04%. `O=S(=O)(NCc1ccc(F)cc1)c1ccc2[nH]c3c(c2c1)CCCC3`: the “activity change, negative = cytotoxicity” value was inactive: -14.4%. The result for `CC1CCCCN1C(=O)CN1CCSc2ccccc21` (stereo not drawn) reads inactive: -5.07%. The same measure for `CCc1ccccc1NC(=O)CCCn1c(=O)c2cccn2c2ccccc21`: inactive: -12.6%; for `COc1cccc(-n2c(SCC(N)=O)nc3c(oc4ccccc43)c2=O)c1`: inactive: 6.72%. The result for `COc1ccc(NC(=O)C2Cc3ccccc3CN2S(=O)(=O)c2ccccc2)cc1OC` (stereo not drawn) reads inactive: -0.632%; that for `COc1ccc(C(=O)Oc2ccc(C(c3c(C)[nH][nH]c3=O)c3c(C)[nH][nH]c3=O)cc2)cc1`, inactive: 7.37%.

Take `CCc1cccc(-n2c(=O)c3cccnc3n2CC(=O)Nc2ccc(OC)c(Cl)c2)c1`: the “activity change, negative = cytotoxicity” value is inactive: -18.1%.

For the compound `Cc1ccc(NC(=O)c2cnc3cc(C)ccn3c2=O)c(C)c1`, the “activity change, negative = cytotoxicity” value is inactive: 7.36%. The result for `CCCCSc1nc(-c2cccc(OC)c2)nc2c1Cc1c(CO)cnc(C)c1O2` reads inactive: 25.5%. The same measure for `COc1ccc(OC)c(NC(=O)C2CCN(S(=O)(=O)c3c(C)noc3/C=C/c3ccc(C)cc3)CC2)c1`: inactive: 25.4%.

As for `CC1CCCCN1CCCNC(=O)c1sc2ncccc2c1-n1cccc1` (stereo not drawn), the “activity change, negative = cytotoxicity” value was inactive: 3.16%. The result for `CCC(C)n1c(=N)c(C(=O)NCc2ccco2)cc2c(=O)n3cc(C)ccc3nc21` (stereo not drawn) reads inactive: 21.2%; that for `COc1cccc(NC(=O)Cn2nc(-c3ccncc3)ccc2=O)c1`, inactive: 1.73%. The same measure for `CNC(=O)C1CCC(Cn2c(=O)c3sccc3n(CC(=O)Nc3cc(C)cc(C)c3)c2=O)CC1` (stereo not drawn): inactive: 0.143%.

As to `O=C(c1c[nH]c2ccc(S(=O)(=O)Nc3ccccc3F)cc2c1=O)N1CCCCCC1`, the “activity change, negative = cytotoxicity” value was inactive: 10.5%. The same measure for `CC(C)c1ccc(C(=O)CC2(O)C(=O)N(CCc3ccccc3)c3ccc(Cl)cc32)cc1` (stereo not drawn): inactive: 24.2%; for `CCOc1ccc(NC(=O)C(=O)NCCc2sc(-c3ccc(C)cc3)nc2C)cc1`: inactive: 14.7%; for `CCOCCCNC(=O)C1CCN(c2nc3ccc(Cl)cc3[nH]2)CC1`: inactive: -2.13%. The same measure for `O=C(c1cnn(-c2ccc(F)cc2)c1-n1cccc1)N1CCN(c2cccc(Cl)c2)CC1`: inactive: -1.23%. Turning to `Cc1ccc(C(=O)Nc2cc(-c3nc4cc(Cl)ccc4o3)ccc2C)c(C)c1`, the “activity change, negative = cytotoxicity” value is inactive: 0.072%. As for `COc1ccc(Cn2c(CNS(=O)(=O)c3ccc(Cl)s3)nc3cccnc32)cc1`, the “activity change, negative = cytotoxicity” value was inactive: -8.82%.

For the compound `O=S(=O)(NCc1csc(-c2ccccc2)n1)c1ccccc1`, the “activity change, negative = cytotoxicity” value was inactive: 0.604%.

In the case of `Cc1cccc(Cn2c(CN3CCC(C(=O)NCc4ccccc4Cl)CC3)cc3ccccc32)c1`, the “activity change, negative = cytotoxicity” value was inactive: -11.5%. The same measure for `CCCN1C(=O)c2[nH]nc(-c3ccc(OC)cc3)c2C1c1ccccn1` (stereo not drawn): inactive: 2.62%. Regarding `COC(=O)c1sc(N2C(=O)c3oc4cc(C)c(C)cc4c(=O)c3C2c2ccccc2F)nc1C` (stereo not drawn), the “activity change, negative = cytotoxicity” value was inactive: 2.24%. The same measure for `CC(=O)Nc1ccc(S(=O)(=O)N2CCN(c3ccc(C)c(C)c3)CC2)cc1`: inactive: -7.47%.

As to `Cc1cc(N2CCN(C)CC2)nc2ccc(NC(=O)c3ccccc3F)cc12`, the “activity change, negative = cytotoxicity” value is inactive: -20.1%. The result for `O=c1c2cccnc2n(Cc2ccc(Cl)cc2)c(=O)n1Cc1ccc(F)cc1` reads inactive: 12.3%. Consider `CNC(=O)c1cccc(-n2c(C)nc3cccnc32)c1C`, for which the “activity change, negative = cytotoxicity” value was inactive: 0.68%. The result for `CCCSc1nnc(NC(=O)Cc2coc3cc(C)ccc23)s1` reads inactive: 1.18%; that for `CC(=O)c1ccc(NC(=O)CSc2nc3c(=O)n(C)c(=O)n(C)c3n2C)cc1`, inactive: 2.88%.

For the compound `Cc1cc(OCC(=O)Nc2ccc(C(=O)OC3CCCCC3)cc2)ccc1Cl`, the “activity change, negative = cytotoxicity” value is inactive: 1.95%. The same measure for `O=C(CSc1nnc2[nH]c(=O)cc(-c3ccccc3)n12)Nc1ccccc1C(F)(F)F`: inactive: 1.46%; for `Cc1cccc(NC(=O)Nc2ccc(C)c(C)c2)n1`: inactive: 1.01%.

In the case of `COc1ccc(CCNC(=O)c2cc3c(=O)n4ccccc4nc3n2C)cc1`, the “activity change, negative = cytotoxicity” value is inactive: 3.91%.

In the case of `CCc1ccc(NC(=O)CSC2=Nc3ccccc3C3=NC(CC(=O)NCc4cccs4)C(=O)N23)cc1` (stereo not drawn), the “activity change, negative = cytotoxicity” value was inactive: 4.22%. The result for `COc1cccc(N2CCN(C(=O)c3ccc4c(Cl)c5c(nc4c3)CCCC5)CC2)c1` reads inactive: 25.2%; that for `CCC(Cn1nnc2ccccc2c1=O)NC(=O)Nc1cc(OC)cc(OC)c1` (stereo not drawn), inactive: 1.86%. The result for `Cc1cc2c(cc3c(SCc4cccc(Cl)c4)nnc(C)n32)o1` reads inactive: 1.73%; that for `COc1ccc(NC(=O)Cn2cc(S(=O)(=O)c3ccccc3)c(=O)c3cc(C)ccc32)cc1Cl`, inactive: -1.56%; that for `CCc1cccc(C)c1NC(=O)c1cc2ccccc2o1`, inactive: -18.5%. As to `Cn1cc(S(=O)(=O)c2ccccc2)c(=O)c2cc(F)c(N3CCCC3)cc21`, the “activity change, negative = cytotoxicity” value is inactive: -0.941%. As to `Cc1cc(S(=O)(=O)NCCc2csc(-c3cccc(F)c3)n2)ccc1F`, the “activity change, negative = cytotoxicity” value was inactive: -12.8%. The result for `CCCC(=O)OC1=C(C(C)=O)N(Cc2ccccc2)S(=O)(=O)c2ccccc21` reads inactive: -16%; that for `O=C1CCSC2(C(=O)N(Cc3ccccc3)c3ccccc32)N1c1ccccc1` (stereo not drawn), inactive: 3.65%; that for `CCCCOc1ccc(S(=O)(=O)n2nc(C)c(S(=O)(=O)N3CCCCCC3)c2C)cc1`, inactive: -1.46%. The same measure for `O=C(NCCCN1CCN(c2ccccc2F)CC1)c1sc2ncccc2c1-n1cccc1`: inactive: -24.2%; for `CCCCNC(=O)c1cnc2c(-c3ccc(OCC)c(OCC)c3)c(C)nn2c1-c1ccccc1`: inactive: 4.2%. The same measure for `O=C(CCS(=O)(=O)c1cc2c(cc1Cl)NC(=O)CO2)NCc1ccccc1`: inactive: 5.22%.

For the compound `O=C(Cn1nnc(-c2cccc(C(F)(F)F)c2)n1)NCc1ccc(F)cc1`, the “activity change, negative = cytotoxicity” value is inactive: -0.684%. The same measure for `CCc1ccc(CNC(=O)c2cc3cc4ccc(OC)cc4nc3o2)cc1`: inactive: 16.6%. The result for `Cc1ccc(OCc2cc(=O)n3c(-c4ccccc4)csc3n2)cc1` reads inactive: 13.1%; that for `CCN(CC)S(=O)(=O)c1ccc2c(c1)c(=O)c(C(=O)N1CCN(c3ccccc3OC)CC1)cn2C`, inactive: 2.32%.
